# Source: the supplement of paper PMC3334620
# Over roughly 33,000 sequences, “E-score (-0.5 to 0.5)” has its median near -0.013; the highest 2% begin near 0.3. This is one part of the list.
# Biological target: T1, Msn1 (UniProt P22148)
# T1 sequence: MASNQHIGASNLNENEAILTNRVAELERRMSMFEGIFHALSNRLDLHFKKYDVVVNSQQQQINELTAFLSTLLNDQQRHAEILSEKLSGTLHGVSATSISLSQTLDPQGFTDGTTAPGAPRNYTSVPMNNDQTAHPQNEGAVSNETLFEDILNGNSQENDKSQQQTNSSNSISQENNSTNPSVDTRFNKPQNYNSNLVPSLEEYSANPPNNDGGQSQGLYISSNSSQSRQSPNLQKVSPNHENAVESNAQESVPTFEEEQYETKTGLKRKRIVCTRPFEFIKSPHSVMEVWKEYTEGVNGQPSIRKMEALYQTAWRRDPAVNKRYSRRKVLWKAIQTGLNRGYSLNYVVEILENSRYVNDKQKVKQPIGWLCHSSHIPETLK
# Experiment: PBM E-score (8-mer binding enrichment) (E-score (-0.5 to 0.5)); higher = stronger / more preferred TF binding; most listed sequences are background and not binding sites
# Conditions: protein concentration: 200 nM; construct: GST-full length
# Method: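 Universal 'all 10-mer' protein binding microarrays (Agilent AMADID 015681) probed with GST-tagged S. cerevisiae TFs (full-length or DBD) made by in vitro transcription/translation (PURExpress), about 100-200 nM. Bound TF was detected with fluorescent anti-GST. Each ungapped 8-mer (which stands for itself and its reverse complement) is scored by the PBM enrichment score (E-score), a modified Wilcoxon-Mann-Whitney statistic from -0.5 to +0.5, computed with the Universal PBM Analysis Suite. Scale: above 0.35 generally sequence-specific binding.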
row,Sequence,PBM E-score
1,CCAGTGGA,-0.119
2,CATCTGCG,-0.0602
3,CTCCGGGA,-0.0499
4,AGATGCGA,0.0645
5,CCAAGAGA,0.053
6,ACTCCTAT,-0.16
7,CACCGTAG,-0.00759
8,CGCCCGCG,0.0352
9,CGGGTACA,-0.00669
10,CGTTGGTC,0.0344
11,CCTTTCGC,-0.146
12,CCATCGCA,-0.185
13,GGCCTATA,-0.265
14,CTACTCTC,-0.125
15,ATACGCTC,0.0274
16,AGTGCGGC,-0.254
17,AATTTTAG,0.199
18,CCATCTCA,-0.109
19,CAAGTCGC,-0.125
20,ACGAGCAC,-0.0209
21,ACCTTCAA,-0.0671
22,AGAAATTG,0.12
23,GTATCATA,0.123
24,AAGCCTTC,-0.205
25,CTGGACTC,-0.176

row,Sequence,PBM E-score
1,ACGTCAGA,-0.055
2,CGGTGAAG,-0.232
3,ATAGCCCC,-0.309
4,GCCAAGCA,-0.199
5,CAGATCAA,0.0015
6,CCATCAAA,-0.0115
7,AAATAACA,0.0895
8,GCACACGC,-0.0944
9,CTAATACA,0.116
10,GATACGGC,-0.139
11,TAATCTAA,0.0248
12,CCAGAAGC,-0.207
13,CCTTCCCA,-0.0879
14,AGTGGGAT,-0.0983
15,AAGACCCA,-0.165
16,GCCTAATA,0.0106
17,ATGCGTCA,0.068
18,CCTCATTC,-0.0955
19,TAGACCGA,0.133
20,CTATAAAA,0.175
21,ATCGTATG,0.0884
22,CTGAACCC,-0.0469
23,CCAACGAA,-0.0736
24,GAAGTTCC,-0.0697
25,GTACTCCA,-0.0631

row,Sequence,PBM E-score
1,GAATTCTA,0.13
2,AAGTAACC,-0.12
3,GCGACAAC,0.167
4,CGAACCCC,-0.246
5,ATGTTGTC,0.191
6,AGGTGCGC,-0.154
7,CCGGCGGC,-0.105
8,CACGACAC,0.063
9,CCACAAGA,-0.0867
10,GGATAAAA,0.233
11,ATAGCATG,-0.207
12,AGACACAC,0.133
13,CGGGATAA,0.112
14,AGTTCAGG,-0.0736
15,AGTGGACA,0.389
16,ATCTAGCG,-0.169
17,CCTTTGGC,-0.132
18,CGAATTTC,0.228
19,CACTAGAA,-0.146
20,CACCTCCG,-0.053
21,CGCGTATA,-0.11
22,CGGATTAA,0.0802
23,AGGGGCAC,-0.344
24,GTCCGAAC,0.214
25,CACAAACG,0.28

row,Sequence,PBM E-score
1,CCGTGGAC,0.0661
2,CGAGGAGC,-0.0427
3,GCAACTAC,-0.0253
4,GTTACCGA,-0.0628
5,CTCTATGC,-0.0926
6,CACGACTA,-0.00472
7,GCTAGCCA,-0.144
8,TAGAACAA,0.0296
9,CACGGGCC,-0.225
10,AACAACTA,-0.00182
11,TCCAGCGA,-0.173
12,AAAGTTTG,0.148
13,GCTCAGTA,-0.0319
14,ACGAGTAA,0.204
15,ATACAGCG,-0.0744
16,CTTATAAC,0.0642
17,CTACCCAC,-0.155
18,CTCGGCCA,-0.0497
19,ACAATTCA,0.155
20,ACACCTGC,-0.0593
21,ATGTATTC,-0.0192
22,TCCTGTAA,0.0376
23,GATCACCC,-0.167
24,ACTGCTGG,-0.169
25,CGTGCACC,-0.164

row,Sequence,PBM E-score
1,ACCTACTG,-0.189
2,CTGCGAGA,-0.153
3,CGGAATTC,0.0764
4,CTTATTAC,0.102
5,ACCGTGCC,-0.296
6,ACGTACTG,0.0672
7,CCCGGGCG,-0.159
8,CACGTAGG,-0.0824
9,ACGTGCTC,0.0894
10,ACGGCTCA,-0.0304
11,ATACTAAC,0.132
12,CAGAAGCA,0.095
13,TCAACAGA,0.122
14,CGCAGTGC,-0.285
15,AGCGAGAA,-0.0303
16,ACGTATCG,0.0434
17,GCAGGATA,-0.224
18,AGTTACAC,-0.00168
19,AGTTGGAT,-0.0124
20,CGACATAC,0.281
21,GACGGCAC,-0.081
22,ATATAGAG,-0.0323
23,ACCTCCTA,-0.222
24,CAGAATCG,0.0773
25,AAGCGGGT,-0.041

row,Sequence,PBM E-score
1,ATTCCCTC,-0.137
2,CCTTAAGA,-0.0211
3,GAACAGAA,0.0194
4,GTAAAGTA,0.0255
5,CCAATGTA,0.0173
6,GCACGACC,-0.175
7,CAAGTGTC,0.221
8,AACCAGAG,-0.244
9,CCGGTTAA,-0.0631
10,CGTTACTC,-0.115
11,AGCCGGAC,0.109
12,CGCAGGTA,-0.0854
13,GGGGAGAA,-0.173
14,CGCCCCCC,-0.383
15,GCCTTCCA,-0.367
16,AATTGGCC,-0.109
17,ATTTATAC,0.176
18,GACCCGAC,-0.0784
19,TATCATGA,-0.00129
20,ACCTAGAA,-0.00168
21,ACCTTATA,0.0613
22,CCAAACGG,-0.136
23,CATCTAAG,0.0489
24,AGACCTAC,-0.0926
25,CACTTTGG,-0.0207

row,Sequence,PBM E-score
1,TCGATAAA,0.248
2,GCCTTCAC,-0.0643
3,AGGGGTTA,-0.248
4,AAATGGGA,0.0348
5,CAAATTGG,0.174
6,AGACGGCC,-0.33
7,GCGAAAAA,0.0197
8,GGTTTTAA,0.0613
9,AACATGCA,-0.0174
10,AGACCCTG,-0.165
11,TAATCGAA,0.142
12,CCTAGCTC,-0.148
13,CAAGATGG,-0.0978
14,CCACTGCA,0.0537
15,GGCTTGAA,-0.0689
16,CCAACCCG,-0.0115
17,GGTGTGAA,0.178
18,ACATTAGA,0.236
19,CCTAATAG,-0.0111
20,CGTTGCAG,-0.0934
21,GTGCTTTA,0.0809
22,CCTTTGCC,-0.104
23,AATTCGTA,0.106
24,GAGAGCGA,0.00579
25,CACACATG,-0.0314

row,Sequence,PBM E-score
1,CCGGTTGC,0.0883
2,AATGGCGA,0.118
3,ACACCGTG,-0.05
4,AAAAGATA,0.0886
5,CCATCCCG,-0.158
6,CTTATCCA,0.135
7,ACCATGGC,0.105
8,GATTTGCA,0.0983
9,AACTCCTG,-0.221
10,TATCTCAA,0.201
11,AACCGATA,0.071
12,GGCAATAC,0.101
13,CGAGACCG,0.0114
14,GCCTTCGA,-0.163
15,AAGCAGAC,-0.0714
16,AGTGGAAA,0.0448
17,ACATCTAG,0.142
18,ATCAACAC,0.151
19,CTTCATAC,0.0362
20,CCGTGCGA,0.00353
21,CTGAAAGA,0.0495
22,TCTAGACA,0.332
23,CTGTCGCC,-0.0982
24,GCGAGTCC,-0.149
25,ATCGGGCC,-0.144

row,Sequence,PBM E-score
1,AATCAACA,0.209
2,CTTGAGCC,-0.205
3,GAGCTCTA,-0.0425
4,CGCCTGGA,-0.0478
5,ACGTAAGA,0.0894
6,GACTCGAA,-0.164
7,TAATTCAA,0.208
8,GATGGCGC,-0.252
9,CGTGGATC,-0.00231
10,CTGTCAAA,0.0466
11,ATAGGCAT,-0.117
12,ACTACTAT,0.23
13,GTCACACA,-0.0461
14,ACACGGAA,0.166
15,ATCCTTAC,-0.0633
16,ATAGATGA,-0.0355
17,CAGAGCCA,-0.237
18,CGGGCAAA,0.0842
19,AGGCTTTA,-0.202
